# Laboratory results as given in the supplement of paper PMC4604168 (melanoma cell lines).
# Some of the results follow. Single values are uncertain, as repeats are few or missing.
# Tested on: COLO800
# Test: cell count relative to DMSO control; melanoma cells; higher = more viable cells
# Details: library dose: low library concentration; 72 h
# 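Also: cell number obtained by counting DAPI-stained nuclei in high-throughput microscope images with image analysis software, screen run in 1,536-well plates.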
row,Compound,cell count
1,"C/C(O)=C(\C#N)C(=O)Nc1cc(Br)ccc1Br + O=c1cc(-c2cccc3c2Sc2ccccc2S3)oc(N2CCOCC2)c1 [KU55933] (first compound 2 µM, partner dose 1 µM)",80.4%
2,"C/C(O)=C(\C#N)C(=O)Nc1cc(Br)ccc1Br + CCCCCCCCCCCC1=C(O)C(=O)C=C(O)C1=O [Embelin] (first compound 2 µM, partner dose 1.2 µM)",69.3%
3,"C/C(O)=C(\C#N)C(=O)Nc1cc(Br)ccc1Br + O=C(Oc1ccc([N+](=O)[O-])cc1)N1CCC(C(O)(c2ccc3c(c2)OCO3)c2ccc3c(c2)OCO3)CC1 [JZL184] (first compound 2 µM, partner dose 1 µM)",58.5%
4,"N#Cc1c(O)c2c(-c3ccc(-c4ccccc4O)cc3)csc2[nH]c1=O + O=C(Oc1ccc([N+](=O)[O-])cc1)N1CCC(C(O)(c2ccc3c(c2)OCO3)c2ccc3c(c2)OCO3)CC1 [JZL184] (first compound 2 µM, partner dose 1 µM)",137%
5,"Cn1nnc2c(C(N)=O)ncn2c1=O [temozolomide] + Cc1cc(SCc2sc(-c3ccc(C(F)(F)F)c(F)c3)nc2C)ccc1OCC(=O)O [GW0742] (first compound 2 µM, partner dose 2 µM)",129%
6,"NC1(c2ccc(-c3nc4ccn5c(=O)[nH]nc5c4cc3-c3ccccc3)cc2)CCC1 + C[As](C)SC[C@H](NC(=O)CC[C@H](N)C(=O)O)C(=O)NCC(=O)O [Darinaparsin] (first compound 0.4 µM, partner dose 0.4 µM)",85.6%
7,"COc1ccc(-c2ccc3c(N4CCOCC4)nc(N4C[C@@H](C)O[C@@H](C)C4)nc3n2)cc1CO + O=C(Oc1ccc([N+](=O)[O-])cc1)N1CCC(C(O)(c2ccc3c(c2)OCO3)c2ccc3c(c2)OCO3)CC1 [JZL184] (first compound 0.02 µM, partner dose 1 µM)",54%
8,"Cc1ccc(NC(=O)c2cccc(N(C)C)c2)cc1NC(=O)c1ccc(O)cc1 + O=C(Oc1ccc([N+](=O)[O-])cc1)N1CCC(C(O)(c2ccc3c(c2)OCO3)c2ccc3c(c2)OCO3)CC1 [JZL184] (first compound 2 µM, partner dose 1 µM)",158%
9,"Cn1sc(=O)n(Cc2ccccc2)c1=O + C[C@]12O[C@H](C[C@]1(O)CO)n1c3ccccc3c3c4c(c5c6ccccc6n2c5c31)CNC4=O [Lestaurtinib] (first compound 0.4 µM, partner dose 0.004 µM)",145%
10,"Cc1cc(SCc2sc(-c3ccc(C(F)(F)F)c(F)c3)nc2C)ccc1OCC(=O)O + Oc1cc(-c2nc(-c3ccccc3)[nH]c2-c2ccncc2)ccc1Cl [L779450] (first compound 2 µM, partner dose 0.2 µM)",109%
11,"O=S(=O)(c1ccccc1)N(CC(F)(F)F)c1ccc(C(O)(C(F)(F)F)C(F)(F)F)cc1 + Cc1cc(SCc2sc(-c3ccc(C(F)(F)F)c(F)c3)nc2C)ccc1OCC(=O)O [GW0742] (first compound 1.4 µM, partner dose 2 µM)",92.2%
12,"COC(=O)c1sccc1S(=O)(=O)Nc1ccc(Nc2ccccc2)cc1OC + C/C(O)=C(\C#N)C(=O)Nc1cc(Br)ccc1Br [LFM-A13] (first compound 1 µM, partner dose 2 µM)",90.4%
13,"Cc1ccc(Nc2nccc(N(C)c3ccc4c(C)n(C)nc4c3)n2)cc1S(N)(=O)=O [Pazopanib] + N.N.[Cl][Pt][Cl] [cisplatin] (first compound 0.4 µM, partner dose 1.6 µM)",101%
14,"COc1cc(Nc2ncc(F)c(Nc3ccc4c(n3)NC(=O)C(C)(C)O4)n2)cc(OC)c1OC [Tamatinib] + O=C(Oc1ccc([N+](=O)[O-])cc1)N1CCC(C(O)(c2ccc3c(c2)OCO3)c2ccc3c(c2)OCO3)CC1 [JZL184] (first compound 0.4 µM, partner dose 1 µM)",87.4%
